Experimental data from PubChem BioAssay (NCATS).
Several values for one entry are separate records, joined by “and”; a condition that tells them apart may be missing. Identical values can stand only once. The list shows a part of the results. The main result of the screen is listed elsewhere. These columns were measured beside it and carry no call. The list favours compounds with an active or inconclusive main result. The note in brackets gives the kind of curve behind each potency; many fits are weak.

Assay: qHTS Assay for Lipid Storage Modulators (AID 1519)
Settings: Drosophila S3 cells, BODIPY lipid droplet/cell ratio, laser cytometry, cells loaded with oleic acid
Summary of the method: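 Cells seeded at 5,000 per well were treated with compounds over a concentration series and loaded with oleic acid (400 uM, as added). Lipid droplet fluorescence (488 nm excitation, 500-530 nm channel) was read by laser-scanning cytometry and normalized to 20 uM Triacsin C.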

[1] = measured here: cell count channel max response
[2] = measured here: lipid (BODIPY) channel AC50
[3] = measured here: lipid channel max response
[4] = measured here: cell number channel AC50
Tags tell the direction and shape of the fitted curve.

Row | Structure (SMILES) | max response [1] | AC50 [2] | max response [3] | AC50 [4]
1 | Cc1ccccc1-c1nc(NC2CC2)c2ccccc2n1 | 20.5% | 7.08 nM [rising, full curve, poor fit] | 28.4% | –
2 | CCNc1ncc2nc(-c3ccc(F)cc3)c(=O)n(CCC#N)c2n1 | 17.3% | 200 nM [rising, full curve, poor fit] | 27.1% | –
3 | CO/N=C(/C(=O)N[C@H]1C(=O)N2C(C(=O)O)=C(COC(C)=O)CSC12)c1csc(N)n1 (some centres undefined) | 22.9% | 31600 nM [rising, single point] | 36.9% | –
4 | COc1cccc2c1C(=O)c1c(O)c3c(c(O)c1C2=O)C[C@](O)(C(=O)CO)C[C@H]3O[C@@H]1C[C@H](N)[C@H](O)[C@H](C)O1 | -44.1% | 5010 nM [falling, partial curve] | -70% | –
5 | COc1cccc(Cn2c(=O)cnc3cnc(Nc4cccc(OC)c4)nc32)c1 | 1.04% | 56.2 nM [rising, full curve, poor fit] | 0.007% | –
6 | Oc1ccc(Cl)c2cccnc12 | 18.7% | 28200 nM [rising, single point] | 30.4% | –
7 | Cn1c(=O)c(-c2cccc(F)c2)nc2cncnc21 | 28.3% | 2000 nM [rising, full curve] | 39.6% | –
8 | COc1cccc(Nc2ncc3nc(-c4cc(F)cc(F)c4)c(=O)n(C[C@H]4CCCO4)c3n2)c1 | 138% | – | -58.2% | 28200 nM [rising, partial curve]
9 | C[C@H]1NC(=O)NC1=O | 7.85% | 2.24 nM [rising, full curve, poor fit] | 9.87% | –
10 | NC(=O)c1ccccc1-c1nc(-n2ccnc2)c2ccccc2n1 | 22.9% | 3160 nM [rising, full curve, poor fit] | 31.1% | –
11 | O=C(O)[C@H]1C(=CCO)O[C@H]2CC(=O)N12 | 22.8% | 20000 nM [rising, single point] | 31.8% | –
12 | COc1ccc(CNc2ncnc3ccc(-c4c(C)noc4C)cc23)c(OC)c1 | 17.6% | 3160 nM [rising, partial curve, poor fit] | 11.3% | –
13 | CCn1cc(C(=O)O)c(=O)c2cnc(N3CCCC3)nc21 | 18.9% | 39800 nM [rising, single point] | 34.3% | –
14 | O=c1c(-c2cc(F)cc(F)c2)nc2cnc(N3CCOCC3)nc2n1-c1ccccc1 | 22.1% | 17.8 nM [rising, full curve, poor fit] | 28.9% | –
15 | Cn1c(=O)c(-c2ccccc2)nc2cnc(N3CCOCC3)nc21 | 15.1% | 1260 nM [rising, partial curve, poor fit] | 18.5% | –
16 | O=C(c1ccco1)N1CCC2(CC1)CCN(c1ccc(-c3ccccc3)cc1)CC2 | 22.8% | 14100 nM [rising, partial curve, poor fit] | 39.8% | –
17 | COc1ccc2[nH]cc(CCNc3ccnc(-c4ccc(C(=O)N(C)C)cc4)n3)c2c1 | 11% | 28.2 nM [rising, full curve] | 13.5% | –
18 | COc1ccccc1CNc1nc(-c2ccccc2OC)nc2ccccc12 | 0.419% | – | -7.11% | 1580 nM [rising, full curve, poor fit]
19 | COc1cccc(Cn2c(=O)c(-c3cccs3)nc3cncnc32)c1 | 36.3% | 282 nM [rising, full curve, poor fit] | 39.9% | –
20 | O=c1c(-c2ccc(F)cc2)nc2cnc(N3CCOCC3)nc2n1Cc1ccc(F)cc1 | 21.1% | 5010 nM [rising, full curve, poor fit] | 31.3% | –
21 | CN1CCN(CCC=C2c3ccccc3Sc3ccc(S(=O)(=O)N(C)C)cc32)CC1 | 14.8% | 2000 nM [rising, full curve, poor fit] | 32.3% | –
22 | COc1c2ccoc2c(OC)c2oc(=O)ccc12 | 23.1% | 1000 nM [rising, full curve] | 39.1% | –
23 | N#Cc1cccc(NC(=O)N2CC[C@@]3(CCCN(C(=O)c4cc(C(F)(F)F)cc(C(F)(F)F)c4)C3)C2)c1 | 18.1% | – | 23% | 3550 nM [rising, single point]
24 | CN(C)C(=O)c1ccc(-c2nccc(NCc3cccnc3)n2)cc1 | 24.9% | 6310 nM [rising, partial curve] | 36.3% | –
25 | COc1cccc(Nc2ncc3nc(-c4cn(C)c5ccccc45)c(=O)n(C[C@H]4CCCO4)c3n2)c1 | 33.5% | – | 8.09% | 447 nM [rising, full curve, poor fit]
26 | O=c1c(-c2ccc(F)cc2)nc2cnc(Nc3ccccc3)nc2n1Cc1cccs1 | 7.26% | 891 nM [rising, single point] | -0.351% | –
27 | CN(Cc1ccco1)c1ccnc(-c2ccoc2)n1 | 24.7% | 39800 nM [rising, single point] | 32.2% | –

Row | Structure (SMILES) | max response [1] | AC50 [2] | max response [3] | AC50 [4]
28 | Cc1noc(C)c1-c1nc(NCc2ccccc2)c2ccccc2n1 | 2.45% | 22.4 nM [rising, full curve, poor fit] | 10.6% | –
29 | CCC(=O)c1c(O)cc(O)cc1O | 21.8% | 22400 nM [rising, partial curve, poor fit] | 46.3% | –
30 | CN(C)c1cc(-c2cccc(NS(C)(=O)=O)c2)ncn1 | 27.6% | 7940 nM [rising, partial curve] | 32.7% | –
31 | O=[N+]([O-])c1cccc2cn[nH]c12 | 99.5% and 52.1% | – | 127% and 53.5% | 31600 nM [rising, partial curve]
32 | Cn1c(=O)c(-c2ccc(F)cc2)nc2cnc(Nc3ccccc3)nc21 | 31.8% | – | 6.2% | 7.94 nM [rising, full curve, poor fit]
33 | COc1ccccc1N1CCN(C[C@@H](C(=O)NC(C)(C)C)c2ccccc2)CC1 | 29.9% | 20000 nM [rising, single point] | 76.7% | –
34 | CCNc1ncc2nc(-c3ccc(Cl)cc3)c(=O)n(Cc3ccc(F)cc3)c2n1 | 17.7% | 56.2 nM [rising, full curve, poor fit] | 18% | –
35 | COc1ccc(Oc2ncc3nc(-c4cccs4)c(=O)n(C)c3n2)cc1 | 22.4% | – | -28.9% | 141 nM [rising, full curve, poor fit]
36 | COCCn1c(=O)c(CCc2ccccc2)nc2cnc(OCc3ccccc3)nc21 | 14% | 3160 nM [rising, partial curve, poor fit] | 14.5% | –
37 | COCCn1c(=O)c(-c2cccs2)nc2cnc(OCc3ccccc3)nc21 | 21.7% | 79.4 nM [rising, full curve, poor fit] | 26.5% | –
38 | O=C(c1ccncc1)N1CCC[C@@]2(CCN(Cc3cc(C(F)(F)F)cc(C(F)(F)F)c3)C2)C1 | 12.7% | 2240 nM [rising, partial curve, poor fit] | 22.3% | –
39 | COc1ccccc1CCn1c(=O)c(-c2cccs2)nc2cncnc21 | 9.05% | 562 nM [rising, partial curve] | 7.78% | –
40 | CN(C)C(=O)c1ccc(-c2cncnc2NCCN2CCOCC2)cc1 | 28.6% | 35500 nM [rising, partial curve, poor fit] | 38.4% | –
41 | CC[C@H](C)[C@@H]1O[C@]2(CC[C@@H]1C)C[C@H]1C[C@H](CC=C(C)[C@@H](O[C@@H]3C[C@H](OC)[C@H](O[C@@H]4C[C@H](OC)[C@H](O)[C@H](C)O4)[C@H](C)O3)[C@@H](C)C=CC=C3CO[C@@H]4[C@@H](O)C(C)=C[C@@H](C(=O)O1)[C@]34O)O2 | -61.3% | – | -86% | 15800 nM [falling, single point]
42 | COc1ncc2ncc(=O)n(C3CC3)c2n1 | 26.2% | 25100 nM [rising, single point] | 31.7% | –
43 | O=C(O)[C@H]1C[C@@H](CP(=O)(O)O)CCN1 | 26% | 31600 nM [rising, single point] | 32% | –
44 | O=C(c1ccco1)N1CCC2(CCCN(c3ncccn3)C2)CC1 | 24.3% | 56.2 nM [rising, full curve] | 33.5% | –
45 | N#Cc1ccc(CN2CCC3(CC2)CCN(C(=O)c2cnccn2)CC3)cc1 | 11.8% | 251 nM [rising, partial curve, poor fit] | 20.7% | –
46 | O=C(Oc1ccccc1)N1CCC2(CCCN(c3cccc(-c4ccccc4)c3)C2)CC1 | 21.4% | 112 nM [rising, full curve, poor fit] | -24.4% | –
47 | CN(C)C(=O)c1ccc(-c2cc(NCc3ccccc3)ncn2)cc1 | 28% | 3550 nM [rising, full curve, poor fit] | 33.7% | –
48 | O=C(c1cnccn1)N1CCC2(CC1)CCN(c1ccccn1)CC2 | 21.3% | 794 nM [rising, single point] | 34.2% | –
49 | COC(=O)N1CCC2(CCCN(C(=O)Nc3ccc(OC)cc3)C2)CC1 | 8.17% | 10 nM [rising, full curve, poor fit] | 3.16% | –
50 | N#Cc1cccc(NC(=O)N2CCC3(CC2)CCN(C(=O)c2cnccn2)CC3)c1 | 28% | 6.31 nM [rising, full curve, poor fit] | 36.7% | –
51 | Cn1cccc1C(=O)N1CCC[C@@]2(CCN(Cc3nccs3)C2)C1 | 25.7% | 20000 nM [rising, partial curve, poor fit] | 39.1% | –
52 | COc1cccc(Cn2c(=O)cnc3cnc(Nc4ccccc4)nc32)c1 | 46.6% | – | -24.6% | 12600 nM [rising, partial curve]
53 | CCNc1ncc2nc(-c3cccs3)c(=O)n(CCC#N)c2n1 | 7.93% | 1780 nM [rising, full curve, poor fit] | 10.1% | –
